# Measurements published in PMC5404542, “In Vitro and In Vivo Antifungal Profile of a Novel and Long-Acting Inhaled Azole, PC945, on Aspergillus fumigatus Infection” (Antimicrobial Agents and Chemotherapy, 2017).
# Tested on: A. fumigatus (ATCC 13073 [strain NIH 5233])
# Experiment: In vivo antifungal activity, intranasal treatment of temporarily neutropenic immunocompromised mice
# Conditions: collected on day 7 postinfection or on the day of dropout
smiles,measurement,value
"Cc1cc(N2CCN(c3ccc(C(=O)Nc4ccc(F)cc4)cc3)CC2)ccc1OC[C@@H]1CO[C@@](Cn2cncn2)(c2ccc(F)cc2F)C1 [PC945, 4-[4-(4-{[(3R,5R)-5-(2,4-difluorophenyl)-5-(1H-1,2,4-triazol-1-ylmethyl)oxolan-3-yl]methoxy}-3-methylphenyl)piperazin-1-yl]-N-(4-fluorophenyl)benzamide]",GM level in bronchoalveolar lavage fluid (BALF),significantly reduced
